According to a compilation of properties of binary mixtures (doi:10.1016/j.jct.2011.12.003):
Some of these densities may be calculated back from excess volumes.

Assay: xn = mol fraction of the nth substance listed
Conditions: 101 kPa

CCCCCCO + CCCCCCCC[n+]1ccc2ccccc2c1.O=S(=O)([N-]S(=O)(=O)C(F)(F)F)C(F)(F)F
x1 = 1
Conditions | mass density [kg/m3]
298.15 K | 815.2
308.15 K | 808
318.15 K | 800.6
338.15 K | 785.5

CCCCO + CCCCCCCC[n+]1ccc2ccccc2c1.O=S(=O)([N-]S(=O)(=O)C(F)(F)F)C(F)(F)F
x1 = 1
Conditions | mass density [kg/m3]
298.15 K | 805.8
308.15 K | 798.1
318.15 K | 790.2
328.15 K | 782.2
338.15 K | 773.9

OCCc1ccccc1 + CCCCCCCC[n+]1ccc2ccccc2c1.O=S(=O)([N-]S(=O)(=O)C(F)(F)F)C(F)(F)F
x1 = 1
Conditions | mass density [kg/m3]
298.15 K | 1016.2
308.15 K | 1008.6
318.15 K | 1001
328.15 K | 993.3
338.15 K | 985.5

CCCCCCCC[n+]1ccc2ccccc2c1.O=S(=O)([N-]S(=O)(=O)C(F)(F)F)C(F)(F)F + CCCCCCO
mass density [kg/m3]
Conditions | x2 = 0 | x2 = 0.0854 | x2 = 0.1805 | x2 = 0.2857 | x2 = 0.3673 | x2 = 0.4981 | x2 = 0.5825 | x2 = 0.6854 | x2 = 0.7913 | x2 = 0.9063
298.15 K | 1330.8 | 1315.4 | 1296.1 | 1271.3 | 1249 | 1205.5 | 1170.7 | 1118.4 | 1047.8 | 941.2
308.15 K | 1322 | 1306.7 | 1287.6 | 1262.9 | 1240.5 | 1197.1 | 1162.3 | 1110 | 1039.6 | –
318.15 K | 1313.6 | 1298.4 | 1279.2 | – | 1232.1 | 1188.6 | 1153.9 | 1101.6 | 1031.4 | 925.7
328.15 K | 1305.2 | 1290 | 1270.8 | 1246 | 1223.6 | 1180.2 | 1145.5 | 1093.2 | 1023.2 | 917.8
338.15 K | 1296.9 | 1281.6 | – | 1237.6 | 1215.2 | 1171.8 | 1137.1 | – | 1014.9 | –

CCCCCCCC[n+]1ccc2ccccc2c1.O=S(=O)([N-]S(=O)(=O)C(F)(F)F)C(F)(F)F + CCCCO
mass density [kg/m3]
Conditions | 298.15 K | 308.15 K | 318.15 K | 328.15 K | 338.15 K
x2 = 0 | 1330.8 | 1322 | 1313.6 | 1305.2 | 1296.8
x2 = 0.048 | 1324.3 | – | 1307.2 | 1298.8 | 1290.4
x2 = 0.0865 | 1318.8 | 1310.1 | 1301.7 | 1293.3 | 1284.9
x2 = 0.1708 | 1305.6 | 1297 | 1288.6 | – | 1271.6
x2 = 0.3134 | – | – | 1261.9 | 1253.4 | –
x2 = 0.4036 | 1258 | 1249.4 | 1240.8 | 1232.2 | 1223.6
x2 = 0.5032 | – | 1220.7 | 1212.1 | 1203.4 | 1194.7
x2 = 0.6067 | 1191.1 | 1182.4 | 1173.8 | 1165.1 | 1156.3
x2 = 0.6915 | 1150 | – | 1132.7 | 1124.1 | –
x2 = 0.7937 | 1082.2 | 1073.6 | – | 1056.4 | –
x2 = 0.9314 | 931.8 | 923.6 | 915.4 | 907 | 898.5

CCCCCCCC[n+]1ccc2ccccc2c1.O=S(=O)([N-]S(=O)(=O)C(F)(F)F)C(F)(F)F + OCCc1ccccc1
mass density [kg/m3]
Conditions | x2 = 0 | x2 = 0.0851 | x2 = 0.1985 | x2 = 0.3101 | x2 = 0.3748 | x2 = 0.4969 | x2 = 0.5766 | x2 = 0.695 | x2 = 0.8076 | x2 = 0.8956
298.15 K | 1330.8 | 1322 | 1308.7 | 1293 | 1282.5 | 1258.7 | – | 1203 | 1155.4 | –
308.15 K | 1322 | 1313.3 | 1300.2 | 1284.7 | 1274.2 | 1250.4 | 1231.2 | – | 1147.4 | 1096.3
318.15 K | 1313.6 | 1305 | – | 1276.3 | – | 1242.1 | – | 1186.7 | 1139.4 | 1088.5
328.15 K | 1305.2 | – | 1283.5 | 1268 | – | 1233.7 | – | – | 1131.4 | 1080.6
338.15 K | 1296.8 | – | 1275.2 | 1259.7 | – | 1225.4 | 1206.5 | – | 1123.4 | 1072.7
